± gives the standard deviation of the averaged measurements. Some of the results follow.
system: PfAP2-EXP AP2 domain (GST-tagged); experiment: gcPBM binding intensity (ln(normalized median fluorescence intensity)); higher = stronger DNA binding
Outline: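 The binding buffer was 1× PBS containing 1% milk, 0.2 mg/ml BSA, 0.5% salmon testes DNA and 0.03% Triton X-100. In it, GST-tagged P. falciparum DNA-binding domains expressed in E. coli were applied for 1 h to an Agilent 4 × 180k array of primer-extended double-stranded 36-bp intergenic genomic probes plus negative controls. Binding intensity, read with Alexa488 anti-GST antibody and a 488 nm scan, is the highest Masliner-normalised natural-log median intensity across replicate spots of either probe orientation.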

Row | Sequence | gcPBM binding intensity (ln)
1 | AATGATAAAAATAAATGTACAGAATGATATTTTTTT [XGTACX_site5976] | 8.48 ± 0.46
2 | AAAAAATTGTTTCCCTGTACTCAAAAAAAAAAAAAA [XGTACX_site8070] | 8.21 ± 0.42
3 | TAATAATAGTAAATATGTACATATATATATATATAG [XGTACX_site4602] | 8.73 ± 0.3
4 | TAAAATTTACGGTCTTGTTGCGCAACCAACATTGTC [CACACA_negctrl_site1175] | 8.82 ± 0.49
5 | GTTTTTTTTTTTTTGGTGCGTCATTTTCAAAAGAAG [GTGCAC_site9745] | 8.73 ± 0.29
6 | GTATGTATGTATGTATGTACTTATTTATTTATTTAT [XGTACX_site1921] | 9.27 ± 0.13
7 | TAAATTTAAAATGACACACACTAAAATTATTTAAGT [CACACA_site4816] | 8.57 ± 0.44
8 | AAATATTCATAGTATACACACATTTATTTATAACCA [CACACA_site6502] | 8.46 ± 0.36
9 | ACCTTTAATATATACACACACATAAAAAAAATATAT [CACACA_site1843] | 9.49 ± 0.54
10 | TAAAAGTATTCCTTTTGTACATATAATGAAAACAAT [XGTACX_site2069] | 8.4 ± 0.33
11 | ATACAATAATATAAATGTACAAATTATATCTTAATT [XGTACX_site6004] | 8.54 ± 0.41
12 | CTATATTTTTAAAAATGTACTTTATAATAAAATACT [XGTACX_site3593] | 8.28 ± 0.43
13 | CTGTTTTTACTAAGTTGTACAAATGATGATACCCTA [XGTACX_site630] | 8.76 ± 0.33
14 | TATATTTCATTATATTGTACAAAATATATATATTAT [XGTACX_site4644] | 8.47 ± 0.25
15 | ATACATGAATAAATATGTACACATATAAAAACATAT [XGTACX_site2740] | 8.68 ± 0.23
16 | ATGTATATAAATATACGTACATAAATATAAGTATAG [XGTACX_site7155] | 8.57 ± 0.26
17 | CATTATATATATTACTAAAAATTTTACCCCTTAGCT [CACACA_negctrl_site302] | 8.49 ± 0.5
18 | TTTTTTCTTTTTATGTGTACTTATTTTATTTAATAA [XGTACX_site1080] | 8.7 ± 0.44
19 | CATTTCTATATAAGCACACACGTGGAATTTTTTTTT [CACACA_site5537] | 8.7 ± 0.26
20 | TTTTAACAAAACTAAATAATCATATATATAAGATAT [GTGCAC_negctrl_site298] | 8.26 ± 0.54
21 | AAATCGTAATATATTTGTACTTATTTGAAAAATCCA [XGTACX_site8141] | 8.41 ± 0.44
22 | TCATATTATAAATAAATAAATAAATATATATATATA [CACACA_negctrl_site577] | 9.97 ± 0.23

Row | Sequence | gcPBM binding intensity (ln)
23 | ATTATTTGAACAACAAAAAAAAAGAAAAGAAAAGAA [CACACA_negctrl_site1031] | 8.88 ± 0.47
24 | AACACGCGCAGACACACACACACACGCACATATATA [CACACA_site7104] | 8.72 ± 0.49
25 | TTTTTTTTCTTTTTTTTAAGAAATAAATAAATAATT [XGTACX_negctrl_site137] | 7.78 ± 0.28
26 | CTTAAAGGGAAAAATACACACATATAAATATTATGT [CACACA_site2225] | 8.21 ± 0.31
27 | ACTTAATTTTTTTTATGTACTTATTTAAAAAATTTT [XGTACX_site2712] | 8.74 ± 0.35
28 | TTAGTAGTATTATGTAGTACATAATTATCATATCAT [XGTACX_site817] | 8.53 ± 0.21
29 | TAATTATTTTTATATTGTACAATATGTAAATATATA [XGTACX_site592] | 8.39 ± 0.38
30 | AAAAAAAAAAAAAAAAGTACATACAACATTATGAAA [XGTACX_site207] | 8.53 ± 0.31
31 | ATAAATAAATAAATCTGTACATATGTATATGTATAT [XGTACX_site4537] | 8.33 ± 0.31
32 | AATTAAAAAAAAAAAAAAAAAAAAAAATGAAAAAAA [CACACA_negctrl_site1073] | 8.04 ± 0.57
33 | TTTTTTGAATTTAAAAGTACAGGCTTTTACCAAATA [XGTACX_site1356] | 8.11 ± 0.26
34 | AAAAAAGAAAAAAAGTGTACAATATTTATTACATAT [XGTACX_site2277] | 8.08 ± 0.028
35 | GCAAAGCACAAATATGCATGTAGATATAGAATAATG [TGCATGCA_site382] | 8.84 ± 0.4
36 | TTTGTGTATATAACAGTGCAATATTATAAATATAAA [GTGCAC_site9750] | 8.71 ± 0.092
37 | ATAATCCTTGGACACACACACACACTAGTAAATAAA [CACACA_site4423] | 8.71 ± 0.53
38 | AACCCAAAATAATTATGTACATATTTTTAAATATAT [XGTACX_site6487] | 8.62 ± 0.49
39 | TATACGTATACCTATACACACATATATTTATTTATA [CACACA_site6716] | 8.56 ± 0.55
40 | TATATATATAACAGAATGCACTTTATATGTTCATAT [GTGCAC_site9880] | 8.94 ± 0.14
41 | GATATCCTTATATTTGCACACACACCCAATAAAATG [CACACA_site1028] | 8.99 ± 0.34
42 | AAAAAATACAGACACACACACACACGCATATAAATA [CACACA_site7644] | 8.8 ± 0.52
43 | TAATAAATTCATAATTGTACATTGAAGTATTATGCA [XGTACX_site5121] | 8.29 ± 0.28
44 | TTTTTTTATTTTGTATGTACATATCATTTGATATTC [XGTACX_site8449] | 8.82 ± 0.43

Row | Sequence | gcPBM binding intensity (ln)
45 | AGTAGCGGCGGTATCATGCACACGTATAGATTGTAA [CACACA_site1587] | 8.85 ± 0.48
46 | ATTAAATCCGCACGCACACACACATATTAAGAAAAA [CACACA_site6062] | 8.62 ± 0.4
47 | GTTGAAAAAAATATATGTACGTATATATGTATGTAT [XGTACX_site8201] | 8.86 ± 0.44
48 | TTGTTTATATATATATGTACATATTTTAAGGCATCC [XGTACX_site6976] | 8.79 ± 0.2
49 | CCACGTATACGATGCACACGTATGCTTTATATATAG [CACACA_site4108] | 9.12 ± 0.56
50 | ATTATTACTATATGTGTACACATCAACTGGTTTGAT [CACACA_site5563] | 8.94 ± 0.4
51 | TTGGTAAATATATTTTGAATATAAGAAATATAGACG [CACACA_negctrl_site1634] | 8.63 ± 0.48
52 | TATTTTCAAAATGTTGTACACACAAAAAAAAAAAAA [CACACA_site8437] | 8.6 ± 0.45
53 | ATATACTTTTCAATGTGTACTTATGAATATATATGT [XGTACX_site7972] | 8.54 ± 0.33
54 | TATTTATAAATATGTGTGCACAATTTATTTTATAAT | 8.79 ± 0.15
55 | TTTTTTTTATATATCTGTACATATATATATATATAT [XGTACX_site8280] | 10.1 ± 0.39
56 | TTATTTCTAACATGATGTACTTTTATATTATATAAT [XGTACX_site3574] | 8.64 ± 0.35
57 | AATATATATATAAATAATATACCTATATATTTTTTG [XGTACX_negctrl_site407] | 8.08 ± 0.28
58 | AAAAACAATTTAATCACACATATATGTCACAAAGAT [CACACA_site5043] | 8.79 ± 0.45
59 | CACTTAAAAAGCTAACGTACAAATACACATATATAA [XGTACX_site1851] | 8.47 ± 0.52
60 | ATATTAAATATTATCACACACATAATTATTTCCATA [CACACA_site2334] | 8.48 ± 0.36
61 | ATATAATAATATGGTTGTACATAAATAACACATGAA [XGTACX_site6592] | 8.87 ± 0.43
62 | CAAAATATTTTTTCCTGTACATAATTCCTATTTCAC [XGTACX_site3590] | 8.73 ± 0.39
63 | ATATATATATATATATGTACATACATATTGTTTGGT [XGTACX_site2284] | 10.3 ± 0.76
64 | ATGATTATACAAAATATACACACGTGTAGACAAATA [CACACA_site1175] | 8.87 ± 0.37
65 | TAATAATAGAAACACACACACATAGACATATATATA [CACACA_site1307] | 8.88 ± 0.51
66 | AAGAACCATATTTAAACACACATACCTATATAAATA [CACACA_site7553] | 8.51 ± 0.47

Row | Sequence | gcPBM binding intensity (ln)
67 | ATAATTATATACCATGCACACAAATATTCATACAGG [CACACA_site9343] | 8.59 ± 0.22
68 | AAAAAATACATACATACACACATATTTATTTATATA [CACACA_site6554] | 8.26 ± 0.35
69 | TATATACACATTTTTATACACACTTGTTTTATAAAA [CACACA_site8139] | 8.55 ± 0.4
70 | TTATGCATATATTATGCATGTAGTTTTAAATCACAT [TGCATGCA_site104] | 8.71 ± 0.23
71 | GCACAAATATATATATATATATATATATATATATAT [GTGCAC_negctrl_site661] | 9.91 ± 0.52
72 | TGCCCTAACCATACTACACACACTGCTCAAAATAGT [CACACA_site2219] | 8.84 ± 0.41
73 | TATATATATTTATAATGTACACATATATGTAAATAT [XGTACX_site3695] | 8.51 ± 0.2
74 | TACAATATAAAATACACACACACAAACATATATTTA [CACACA_site5941] | 8.73 ± 0.5
75 | TAAATATATTTATAAGCACACACTAATAAACCCACA [CACACA_site390] | 9.04 ± 0.39
76 | AATTTTTATACGGATACACACAAAAAAAAATAAAAA [CACACA_site897] | 8.64 ± 0.47
77 | AAAATATATTATTATTGTACATATATTTTCATTTAC [XGTACX_site4593] | 8.64 ± 0.29
78 | TTTATTTTGTTTATGGTGCATTTTATGTAAATATAT | 8.935 ± 0.007
79 | TAATGACAATAAAAATAAATAAATAAAAAAAAAAAA [TGCATGCA_negctrl_site321] | 8.19 ± 0.4
80 | AATAAATAAATAAATAAATAAATATATATATATATA [GTGCAC_negctrl_site330] | 10 ± 0.31
81 | ATATATTATCTGTACACACACATATAAGGGATTATA [CACACA_site4180] | 8.76 ± 0.4
82 | TGAAATAAAATTATTTGTACATATCGGAAAAAAAAA [XGTACX_site7131] | 8.53 ± 0.38
83 | TTTTTTGAAAATAAATGTACGAATTTTATATTTAAA [XGTACX_site2768] | 8.14 ± 0.3
84 | AAGAAAATAAAAAGGTAAATATGTATAAATAAATAA [TGCATGCA_negctrl_site88] | 8.65 ± 0.39
85 | AAGGCATATATAATTTGTACATATTAAGAATTAGAT [XGTACX_site8660] | 8.66 ± 0.39
86 | GATACAGATGGACACACACACATACATAAATACATA [CACACA_site5833] | 8.79 ± 0.47
87 | AAATTACCCATCCATACACACATATTTTTTTTAATT [CACACA_site2189] | 8.63 ± 0.38
88 | CAAAAATAATAGAATACATGCAAAAATAAATGTATA [TGCATGCA_site196] | 9 ± 0.071

Reference: the supplement of paper PMC11417369
